The campaign covered roughly 50,000 compounds. About 800 (1.6%) showed an effect of 50% or more. This is one part of the list.

The source of these data is PubChem BioAssay AID1240 (Sanford-Burnham Center for Chemical Genomics, 2008).

This assay concerns the target Bcl-2-like protein 10 (Homo sapiens) (UniProt Q9HD36). The assay is described as follows: TR3 peptide-Bcl-B binding displacers, biochemical primary FP assay, phenotype converters (AID 1240).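 Also: 0% = Bcl-B with tracer peptide and DMSO and 100% = tracer peptide lacking Bcl-B.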 To be noted: GST-Bcl-B / FITC-TR3 peptide fluorescence polarization; stronger effect = higher value; compound at 3.75 mg/L. Background: Fluorescence polarisation rises when a labelled molecule tumbles more slowly, as on binding a larger partner.
Sequence of UniProt Q9HD36 (Q9HD36 whole entry, looked up): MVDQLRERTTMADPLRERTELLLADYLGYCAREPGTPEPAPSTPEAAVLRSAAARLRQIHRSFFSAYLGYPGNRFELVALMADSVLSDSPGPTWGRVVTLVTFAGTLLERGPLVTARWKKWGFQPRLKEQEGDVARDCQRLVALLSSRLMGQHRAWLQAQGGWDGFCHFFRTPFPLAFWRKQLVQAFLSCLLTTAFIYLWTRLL
As to `CC(O)C(=O)NS(=O)(=O)c1ccc(C(C)C)cc1` (configuration not stated), the displacement was 5.3%.

As for `CCOC(=O)c1c(NC(=O)c2ccccc2)sc2c1CCN(Cc1ccccc1)C2`, the displacement worked out at 12%.

With `CC(=O)Oc1ccc2c(C)cc(=O)oc2c1C`, the displacement is -10.7%.

With `CC(=O)NN1C(=O)/C(=C\c2ccc(C)cc2)SC1=S`, the displacement worked out at 36%.

For `CC(=O)Nc1ccc(NC(=O)/C=C/C(=O)O)cc1Cl`, the displacement was -5.8%.

On to `O=C(CSCc1cccc(Br)c1)NCCc1ccc(Cl)cc1`, for which the displacement turned out to be 2.2%.

`CCOC(=O)Cc1csc(NC(=O)COc2cccc(Cl)c2)n1`: the displacement is 0.6%.

For the compound `Clc1ccc(-c2ccc(/C=N\n3cnnc3)o2)c(Cl)c1`, the displacement was determined as 12.6%.

Take `Cc1cccc(-c2cc(NC(=O)COc3ccc(Cl)cc3Cl)n[nH]2)c1`: the displacement came out at 11.5%.

Regarding `CCc1c(C)[nH]n(-c2nc(-c3cccc([N+](=O)[O-])c3)cs2)c1=O`, the displacement was found to be 10.5%.

Regarding `Cc1cc2oc(=O)cc(C)c2cc1NC(=O)COc1ccccc1C`, the displacement was found to be 7.7%.

On to `COc1ccc(CCNC(=O)Nc2ccccc2Cl)cc1OC`, for which the displacement was -6%.

Turning to `CCOC(=O)c1ccc(-c2ccc(/C=N/O)o2)cc1`, the displacement was -7.5%.

`COc1cccc(C(=O)Nc2ccc(Br)cn2)c1`: the displacement is 12.9%.

For `CC(C)c1ccc(NC(=O)c2cccc(Cl)c2)cc1`, the displacement is -13.9%.

For the compound `NC(=O)c1ccc(NC(=O)c2cc(-c3ccc(Cl)c(Cl)c3)nc3ccccc23)cc1`, the displacement was 3.5%.

As to `CCOc1cc(C=C2C(=O)NC(=S)NC2=O)ccc1OCCOc1ccc(C(C)(C)C)cc1`, the displacement is -7.2%.

For `COc1cc(CN2CCN(S(=O)(=O)c3ccc(C)cc3)CC2)cc(OC)c1OC`, the displacement is 9%.

`O=C(O)c1ccccc1SC1CC(=O)N(Cc2ccccc2)C1=O` (configuration not stated): the displacement is 5%.

As to `Cc1ccc(/C=C/C(=O)c2c3c(c(C)[nH]c2=O)CCCC3)cc1`, the displacement was determined as 49.3%.

Turning to `C/C(=N\NS(=O)(=O)c1ccccc1)c1cccc(I)c1`, the displacement was determined as 8.4%.

As to `COc1ccccc1NC(=O)C1=C(C)NC(=O)NC1c1cccc([N+](=O)[O-])c1` (configuration not stated), the displacement is -7.1%.

For `COc1ccc(-c2cc(C(F)(F)F)n3nc(C(=O)NCc4ccccc4)cc3n2)cc1`, the displacement amounted to 4.2%.

Take `Cc1cc(C)nc(NS(=O)(=O)c2ccc(NC(=S)Nc3ccccc3)cc2)n1`: the displacement is -4.6%.

As to `Cc1cc([N+](=O)[O-])ccc1NC(=O)COc1ccc(Cl)cc1`, the displacement came out at 1.1%.

On to `O=C(Nc1nc2ccc3ccccc3c2s1)c1ccc(Cl)s1`, for which the displacement was -7.2%.

As to `O=C(c1ccccc1)N1CCN(C2CC3CCC2C3)CC1` (configuration not stated), the displacement came to 1.7%.

Turning to `Cc1c(C(=O)Nc2ccc3c(c2)OCCO3)cccc1[N+](=O)[O-]`, the displacement is 0.9%.

For the compound `Cc1ccc2occ(C(=O)c3ccco3)c(=O)c2c1`, the displacement was found to be 1.2%.

For the compound `CCOC(=O)/C(N=Nc1cc(C(=O)OC)cc(C(=O)OC)c1)=C(/C)O`, the displacement is 1.7%.

Take `COc1ccc(OC)c(NC(=O)CN(c2cc(C)cc(C)c2)S(=O)(=O)c2ccccc2)c1`: the displacement is -17.3%.

As to `C=CCn1c(NC(=O)c2cccs2)c(C(=O)OCC)sc1=S`, the displacement is -3.1%.

With `COc1ccccc1NC(=O)c1c(NC(=O)C(C)(C)C)sc2c1CCC(C)C2` (configuration not stated), the displacement is -8.4%.

For `COc1cc(-c2noc(-c3ccccc3Cl)n2)cc(OC)c1OC`, the displacement was found to be 9.5%.

For the compound `Cc1ccccc1CNS(=O)(=O)c1ccccc1`, the displacement was -3.2%.

On to `COc1ccc(C(NC(=O)c2ccccc2OC)c2ccc(OC)cc2)cc1`, for which the displacement is -5%.

Consider `Cc1nc2cc(N=Cc3ccc(Br)cc3)ccc2n1C`, for which the displacement was -0.5%.

On to `Cc1ccc(S(=O)(=O)Nc2ccc(NC(=O)c3sc4cc(C)ccc4c3Cl)cc2)cc1`, for which the displacement worked out at 8.2%.

Regarding `COc1cc2c(cc1NC(=O)c1ccccc1Br)oc1ccccc12`, the displacement was -2.8%.

As to `COc1ccc(CC(=O)NCCCN(C)C)cc1`, the displacement is -1.5%.

As to `Cc1c(N2C(=O)/C(=C/c3ccc(OC(=O)c4cccc([N+](=O)[O-])c4)cc3)SC2=S)c(=O)n(-c2ccccc2)n1C`, the displacement is 13.6%.

For `O=C1ON=C(c2ccccc2)/C1=C\c1ccccc1OCc1ccc(F)cc1`, the displacement was -20.5%.

Turning to `CCN1C(=O)/C(=C2\SC(=S)N(CC(=O)O)C2=O)c2ccccc21`, the displacement was -4.4%.

In the case of `CCCCCCCc1nc2ccccc2[nH]1`, the displacement is 13%.

In the case of `O=C(O)c1cc(-c2ccc(/C=N/Nc3ccc([N+](=O)[O-])cn3)o2)ccc1Cl`, the displacement is -10.6%.

Take `CCOC(=O)c1sc(NC(=O)c2ccc(Cl)c(Cl)c2)nc1C`: the displacement is -9%.

Consider `CC(=O)CC(=O)Nc1ccc(Cl)c([N+](=O)[O-])c1`, for which the displacement came to 2.1%.

`NC1=NC(=O)C(CC(=O)Nc2ccccc2[N+](=O)[O-])S1` (configuration not stated): the displacement was -8.3%.

In the case of `C=CCOc1ccc(/C=C2\C(=O)NC(=S)N(c3ccc(Cl)cc3)C2=O)cc1OC`, the displacement was found to be 3.6%.

Take `CC(=O)Nc1ccc2c(c1)C1C=CCC1C(c1ccccc1F)N2` (configuration not stated): the displacement turned out to be 6.2%.

Consider `COc1cc(NS(=O)(=O)c2ccc([N+](=O)[O-])cc2)cc(OC)c1`, for which the displacement turned out to be 2.5%.

As to `CSc1nnc2c(n1)OC(c1cccc([N+](=O)[O-])c1)Nc1ccccc1-2` (configuration not stated), the displacement was 1.2%.

Turning to `CCCCOc1ccccc1C1Nc2ccccc2NC2=C1C(=O)CC(c1ccc(OC)c(OC)c1)C2` (configuration not stated), the displacement turned out to be 0.6%.

In the case of `COc1cc(Br)c(C2C(C(=O)OCCOc3ccccc3)=C(C)NC3=C2C(=O)CC(C)(C)C3)cc1OC` (configuration not stated), the displacement is -24.3%.

As for `CCNC(=O)CN(c1cccc(Cl)c1)S(=O)(=O)c1ccccc1`, the displacement amounted to 1%.

For the compound `COC(=O)c1c(C)oc2ccc(OCc3ccc(F)cc3)cc12`, the displacement amounted to 12.1%.

In the case of `COC(=O)c1ccc(C(C2C(=O)CC(C)(C)CC2=O)C2C(=O)CC(C)(C)CC2=O)cc1`, the displacement was -7.6%.

In the case of `COc1ccccc1NC(=O)COc1ccc(C=C2C(=O)NC(=O)NC2=O)cc1`, the displacement was found to be 4.7%.

Turning to `Cc1ccc(C(=O)Nc2cccc(-c3nc4ccccc4o3)c2C)cc1`, the displacement is 13.7%.

Consider `O=C(CCC1CCCC1)Nc1ccc(F)c([N+](=O)[O-])c1`, for which the displacement is -6.6%.

For `COc1ccc(CC(=O)N2CCN(C(=O)Cc3ccc(OC)cc3)CC2)cc1`, the displacement worked out at 0.3%.

Take `Cc1ccc(S(=O)(=O)NN2C(=O)/C(=C/c3ccc(C(=O)O)cc3)SC2=S)cc1`: the displacement was found to be 14%.

For `O=C(/C=C/c1ccccc1)NC(=S)Nc1ccc(N2CCOCC2)c(Cl)c1`, the displacement is -1.3%.

`O=[N+]([O-])c1cc(Cl)ccc1NCCCNS(=O)(=O)Cc1ccccc1`: the displacement is 8.4%.

For the compound `COc1cc(/C=C2/S/C(=N/S(=O)(=O)c3ccccc3)NC2=O)c([N+](=O)[O-])cc1OC`, the displacement was determined as 7.6%.

For the compound `O=C1NC(=O)N(c2ccc(Cl)cc2)C(=O)/C1=C/c1cc(I)c(O)c([N+](=O)[O-])c1`, the displacement is 7.4%.

For the compound `COc1cc([N+](=O)[O-])ccc1NC(=O)CSc1nc2ccccc2s1`, the displacement was 8.5%.
